Among all 48,000 compounds or so, about 450 (0.94%) were called active. Roughly 19% stayed inconclusive and do not appear here. Calls follow the shape of the dose curve; as a rule, active = well fitted inhibition curve with a large enough effect; inconclusive = small, poorly fitted or top-dose-only effect; inactive = no such curve, though single readings can be large or run the other way. Some of the results follow.
Experiment: Primary qHTS for Identification of Small Molecule Inhibitors of Huntingtin Promoter Activity; also: nearly all actives have a fitted effect of over 50% in size
Conditions: HEK293 HTT promoter firefly luciferase reporter (activity 0% = vehicle and -100% = no light), 24 h; series mostly up to 57.5 µM; activity change, negative = inhibition: at the top concentration
Method in brief: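 Firefly luciferase signal from promoter-reporter HEK293 cells was scaled between vehicle (0%) and zero RLU (-100%). Compounds were tested at final concentrations of up to 57.5 uM over 24 h at 37 degrees C. PTC124 at 50 uM final served as control inhibitor.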

Row | SMILES | activity change, negative = inhibition
1 | Cc1ccc(C)c(CN2C(=O)c3ccccc3S(=O)c3ccc(C(=O)N4CCN(c5ccccc5F)CC4)cc32)c1 (centres undefined) | inactive: -16.1%
2 | COC(=O)c1cc(NC(=O)[C@H](CCS(C)(=O)=O)N2Cc3ccccc3C2=O)cc(C(=O)OC)c1 | inactive: -17.3%
3 | CCc1ccc(-c2nc3cc(NC(=O)c4cc5ccccc5cc4OC)ccc3o2)cc1 | inactive: -22%
4 | COc1ccc(Br)c(C(=O)Nc2cc3c(cc2N2CCCCC2)n(C)c(=O)c(=O)n3C)c1 | inactive: -15.4%
5 | CCc1cc(C(=O)NC(C)c2ccccc2)no1 (centres undefined) | inactive: -8.47%
6 | COc1cc2c(cc1OC)C(COc1ccc(F)cc1)N(C(=O)c1ccc(S(=O)(=O)N3CCCC3)cc1)CC2 (centres undefined) | inactive: -16%
7 | O=C(CCCn1c(=O)c2ccccc2n(Cc2ccc(F)cc2Cl)c1=O)NCCc1ccc(Cl)cc1 | inactive: -2.57%
8 | COC(=O)c1ccccc1NC(=O)c1ccc2nc(Cc3ccccc3)oc2c1 | inactive: 6.41%
9 | CC(=O)Nc1ccc(NC(=O)c2ccc(COc3ccc(Cl)cc3Cl)o2)cc1 | inactive: -17.1%
10 | Cc1cccc(NC(=O)c2c(C)cc(C)nc2SCC(=O)Nc2c(C)cc(C)cc2C)c1 | inactive: -26.1%
11 | CCOc1ccc(-c2cc(-c3nc(-c4cc(OC)c(OC)c(OC)c4)no3)[nH]n2)cc1Cl | inactive: -16.5%
12 | Cc1ccc(-n2nc(CO)c(C(=O)NCc3cccs3)n2)cc1C | inactive: -15.2%
13 | COc1ccc(C)cc1NC(=O)C1CCN(S(=O)(=O)c2ccc3[nH]c4c(c3c2)CCCCC4)CC1 | inactive: -26.6%
14 | Nc1cc(=O)nc(SCC(=O)Nc2ccc(F)cc2)n1-c1ccccc1Cl | inactive: -31.4% [at 11.5 µM]
15 | O=C(COc1ccc([N+](=O)[O-])cc1)NCC1(N2CCOCC2)CCCCC1 | inactive: -15.3%
16 | Oc1c(C(c2ccccc2F)N2CCCCC2)sc2nc(-c3ccco3)nn12 (centres undefined) | inactive: 14.2%
17 | CC(=O)c1cccc(NC(=O)CSc2nc(=O)n(Cc3cccnc3)c3c2CCC3)c1 | inactive: -24.5%
18 | CC(C)CC(=O)Nc1ccc(S(=O)(=O)Nc2cc3c(cc2N2CCOCC2)n(C)c(=O)c(=O)n3C)cc1 | inactive: -11.1%
19 | Cc1ccc(NC(=O)c2cn3c4c(ccc(Cl)c4c2=O)OC(C)C3)c(C)c1 (centres undefined) | inactive: -10.5%
20 | CCCCc1nc2ccccc2n2c(-c3ccc(OC)cc3)c3c(=O)n(C)c(=O)n(C)c3c12 | inactive: -7.69%
21 | Cc1c(C(=O)N2CCC(C)CC2)c(S(=O)(=O)NCc2ccc(Br)cc2)c(C)n1C | inactive: -22.5%
22 | COc1ccc(-n2ncc(C(=O)N3CCN(c4ncccn4)CC3)c2C2CCN(C(=O)OC(C)(C)C)CC2)cc1 | inactive: 1.14%
23 | Cc1nc2sccn2c(=O)c1CCN1CCC(=C(c2ccc(F)cc2)c2ccc(F)cc2)CC1 | inactive: -1.26%
24 | Cc1ccccc1Nc1c(-c2ccc(Cl)s2)nc2c(C)cccn12 | inactive: 2.47%

Row | SMILES | activity change, negative = inhibition
25 | CC(C)(C)OC(=O)N1CCC(c2c(C(=O)NCCCN3CCc4ccccc4C3)cnn2-c2ccccc2)CC1 | inactive: -7.85%
26 | CCOc1ccccc1NC(=O)Cn1c(=O)n(CCCC(=O)NCCc2ccc(C)cc2)c(=O)c2ccccc21 | inactive: -5.46%
27 | COc1ccc(-c2c(C)c3cc(OC(=O)N4CCOCC4)ccc3oc2=O)cc1 | inactive: -24.4%
28 | C[C@H](CCC(=O)O)[C@H]1CC[C@H]2[C@@H]3C(=O)C[C@@H]4CC(=O)CC[C@]4(C)[C@H]3CC(=O)[C@]12C | inactive: 5.69%
29 | O=C(Cn1cc(SCc2ccccc2)c2ccccc21)N1CCCCC1 | inactive: -3.62%
30 | COc1ccc(-c2nc(C)c(CCNC(=O)C(=O)Nc3c(C)cccc3C)s2)cc1OC | inactive: 0.854%
31 | CCc1ccc(CNC(=O)CN(c2ccc(C)cc2)S(=O)(=O)N(C)C)cc1 | inactive: -18.8%
32 | COc1ccc(OC)c(CCNC(=O)C2CCN(c3ncnc4c3nc3n4CCCCC3)CC2)c1 | inactive: -4.7%
33 | CCN(CC)S(=O)(=O)c1ccc2c(c1)c(=O)c(C(=O)NCCc1ccc(OC)c(OC)c1)cn2C | inactive: 5.34%
34 | COC(=O)CNC(c1ccccc1)c1cc(Br)ccc1NC(=O)c1ccc(Cl)cc1 (centres undefined) | inactive: -26.1%
35 | Cc1nc2ccn(Cc3ccccc3)c(=O)c2cc1C(=O)Nc1ccc(F)cc1Cl | inactive: -7.61%
36 | CCC(=O)N1CCc2cc(Br)cc(S(=O)(=O)NCc3cccc(OC)c3)c21 | inactive: 1.71%
37 | Cc1ccc(C)c(NC(=O)CCc2nc3cccnc3n2Cc2cccs2)c1 | inactive: -20.5%
38 | CCN(CC)C(=O)CSc1nc(-c2ccccc2)cc(-c2ccc(OC)cc2)c1C#N | inactive: -2.68%
39 | COc1cccc(NC(=O)Cn2c(=O)n(-c3ccccc3)c(=O)c3c4c(sc32)CCCC4)c1 | inactive: -13.6%
40 | Cc1cc2nc(NC(=O)c3ccc(S(=O)(=O)N4CCOCC4)cc3)sc2cc1C | inactive: 2.54%
41 | COc1ccccc1-c1noc(-c2ccc(NCc3ccccc3)c([N+](=O)[O-])c2)n1 | inactive: -7.56%
42 | CCOc1ccc(NC(=O)Nc2cccc(C)n2)cc1 | inactive: 49.4%
43 | COCCCN1CN=C(NS(=O)(=O)c2ccc(NC(C)=O)cc2)NC1 | inactive: -10.9%
44 | CCOC(=O)c1sc2ccccc2c1S(=O)(=O)N1CCN(c2ccccc2F)CC1 | inactive: -13.7%
45 | CCC(=O)N1CCc2cc(S(=O)(=O)N3CCN(c4ccccc4F)CC3)ccc21 | inactive: 2.11%
46 | COc1cc(OC)c(NC(=O)Cn2nc(C)n3cccc3c2=O)cc1Cl | inactive: 14.2%
47 | COc1ccc(C)cc1NC(=O)CN1C(=O)CSc2ccc(S(=O)(=O)N3CCCC3)cc21 | inactive: -9.71%
48 | CC1=C(c2cccc(Cl)c2)S(=O)(=O)NC1=NCc1ccccc1C | inactive: -19.8%

Row | SMILES | activity change, negative = inhibition
49 | COc1ccc(-c2cn3nc(N4CCC(C(=O)NCc5cccc(Cl)c5)CC4)sc3n2)cc1 | inactive: 18.7%
50 | COC(=O)c1ccc(Nc2nc(-c3ccc(C)cc3)nc3ccccc23)cc1 | inactive: 21.1%
51 | Cc1ccccc1Cn1cnc2c(oc3ccccc32)c1=O | inactive: 1.47%
52 | CC1=Nc2cc(C(=O)NC3CCC(C)CC3)ccc2Sc2c(C)ccc(C)c21 (centres undefined) | inactive: -4.87%
53 | CCN(CC)C(=O)Cn1ncc2c([nH]c3ccc(C)cc32)c1=O | inactive: 2.64%
54 | COc1ccc(NC(=O)c2ccc3c(c2)N(Cc2cccc(Cl)c2)C(=O)c2ccccc2S3(=O)=O)cc1Cl | inactive: -10.3%
55 | Cc1ccc(-n2nc(C(=O)NCc3ccc(F)cc3Cl)c3c4ccccc4n(C)c3c2=O)cc1 | inactive: -14.3%
56 | FC(F)(F)c1ccc2c(c1)ncc1c(-c3ccccc3)nn(-c3ccccc3)c12 | inactive: 1.65%
57 | CCOC(=O)c1c(NC(=O)CSc2cn(CCNC(=O)c3ccc(OC)c(OC)c3)c3ccccc23)sc2c1CCC2 | inactive: -31%
58 | Cc1cc(C)n2nc(-c3ccc(Cl)cc3)nc2n1 | inactive: 56.6%
59 | Cc1cccc(N2CCN(c3nc4ccc(C(=O)c5ccccc5)cc4n4cnnc34)CC2C)c1 (centres undefined) | inactive: -2.77%
60 | COc1ccc(OC)c(NC(=O)c2oc3c(c2C)-c2nn(Cc4ccc(Cl)cc4)cc2CC3)c1 | inactive: -0.725%
61 | Cc1ccc2c(CC(=O)N3CCN(c4cccc(Cl)c4)CC3)coc2c1C | inactive: -12.7%
62 | CC(=O)Nc1ccc(NC(=O)Cn2cc3c(n2)CCCCC3)cc1 | inactive: 0.772%
63 | Cc1cccc(OCCSc2nc3ccc(NC(=O)COc4ccccc4C)cc3s2)c1 | inactive: -8.12%
64 | CC(C)C(=O)Nc1cccc(C(=O)Nc2nnc(C(F)(F)F)s2)c1 | inactive: 5.37%
65 | Cc1ccc(NC(=O)CN(c2ccc(C)cc2)S(=O)(=O)c2cccc3nonc23)cc1 | inactive: -12.2%
66 | CCOCCCn1c(=N)c(C(=O)NCc2ccccc2)cc2c(=O)n3ccccc3nc21 | inactive: 6.01%
67 | COc1cccc(NC(=O)Cn2c(=O)n(CCc3cccc(C)c3)c(=O)c3ccccc32)c1 | inactive: -3.78%
68 | Cc1cccc(NC(=O)c2c(NC(=O)c3ccco3)sc3c2CCC(C)C3)c1 (centres undefined) | inactive: 9.69%
69 | COc1cccc(CNC(=O)c2ccc3c(c2)nc2n3CCC(C)C2)c1 (centres undefined) | inactive: 44.7%
70 | COc1ccc(-n2nc(-c3ccc(C)cc3)c3cnc4cc(F)c(F)cc4c32)cc1 | inactive: -13.8%
71 | Cc1ccc(NC(=O)Cn2nc(-c3ccccc3)nc(Cc3ccccc3)c2=O)cc1 | inactive: -6.92%
72 | CCCN(CCC)C(=O)c1nn(C)c2c1CSc1ccccc1-2 | inactive: -11.8%

Row | SMILES | activity change, negative = inhibition
73 | Cc1ccccc1C(=O)Nc1ccccc1-c1nc(-c2ccccc2)no1 | inactive: 18.1%
74 | Cc1nc(-c2cccc(F)c2)sc1CCNC(=O)C(=O)Nc1ccc2c(c1)OCCO2 | inactive: -39.1%
75 | CCc1nc2nc(C)c(NS(=O)(=O)c3ccc(F)c(C)c3)c(=O)n2[nH]1 | inactive: -17.7%
76 | CCOc1ccc2nc(N3CCCC(C(=O)NCCc4ccc(C)cc4)C3)sc2c1 (centres undefined) | inactive: 68.1%
77 | CC(C(=O)Nc1ccccc1)n1nnc2sc3c(c2c1=O)CCCC3 (centres undefined) | inactive: -16.7%
78 | Cc1cccc(Cn2c(=O)n(Cc3ccccc3)c(=O)c3sc4ccccc4c32)c1 | inactive: -12.8%
79 | CCCCn1c(CNC(=O)C23CC4CC(CC(C4)C2)C3)nnc1SCC(=O)Nc1ccc(F)cc1 | inactive: -31.4%
80 | Cc1cccc(NC(=O)Nc2nnc(N3CCCC3)s2)c1 | inactive: 14.2%
81 | Cc1cc(C(=O)NCc2ccccc2)c2c(C)nn(-c3cccc(Cl)c3C)c2n1 | inactive: -9.02%
82 | Cc1ccc(NC(=O)C2CCCN2S(=O)(=O)c2ccc3nc(-c4ccccc4)[nH]c3c2)cc1C (centres undefined) | inactive: -20.9%
83 | O=C(NCCS(=O)(=O)N1CCN(c2ccccc2F)CC1)C1CC(=O)N(c2ccc(F)cc2)C1 (centres undefined) | inactive: -28.5%
84 | CCc1ccccc1N(CC)C(=O)Cn1nc(Cc2ccncc2)c2ccccc2c1=O | inactive: -27.7%
85 | Cc1ccc(OCC(=O)Nc2cccc3ccc(C)nc23)c(C)c1 | inactive: -0.976%
86 | Cc1cccc(NC(=O)COc2ccc3oc4c(c3c2)CCCC4)c1 | inactive: -9.33%
87 | COc1ccc(CNC(=O)C(=O)NCC(c2cccs2)S(=O)(=O)c2cccs2)cc1 (centres undefined) | inactive: -32.6%
88 | O=C(CCc1nc(-c2cccs2)no1)Nc1ccc([N+](=O)[O-])cc1 | inactive: -22%
89 | O=C(NCc1ccccc1Cl)c1ccc(-n2cnc3cccnc32)cc1 | inactive: -7.28%
90 | Cn1c(/C(C#N)=C/c2ccc(C(F)(F)F)cc2)nc2ccccc21 | inactive: 47.3%
91 | CCOc1ccccc1NC(=O)Cn1nc(N2CCN(c3ccccc3)CC2)ccc1=O | inactive: -19.3%
92 | Cc1ccc(CNC(=O)CSCc2nc(-c3cccc(C)c3)oc2C)cc1 | inactive: -25.2%
93 | Cc1cn2c(=O)c(S(=O)(=O)NCc3ccc(F)cc3)c(C)nc2s1 | inactive: -1.58%
94 | CCC(NC(=O)Nc1cccc(C)c1)c1c(-n2cccc2)sc2c1CCN(C)C2 (centres undefined) | inactive: -21.3%

Reference: PubChem BioAssay AID1508623 (National Center for Advancing Translational Sciences (NCATS), 2021)
